# The whole screen tested about 230,000 compounds, of which about 3,600 (1.6%) were called active. The shares of active, inactive and inconclusive entries below differ from those in the screen. Calls follow the shape of the dose curve; as a rule, active = well fitted inhibition curve with a large enough effect (not every such curve was filed as active); inconclusive = small, poorly fitted or top-dose-only effect, or another doubt; inactive = no such curve, though single readings can be large or run the other way. Potencies of inconclusive entries are doubtful fits and often do not repeat.
# Target: Lysine-specific demethylase 4E (Homo sapiens) (UniProt B2RXH2)
# Assay: qHTS Assay for Inhibitors of Human Jumonji Domain Containing 2E (JMJD2E)
# Conditions: JMJD2E catalytic domain, FDH-coupled NADH fluorescence (FDH is formaldehyde dehydrogenase); series mostly up to 57.1 µM
# Also: nearly all actives have a fitted effect of over 50% in size.
# Potency is read from the fitted curve at half-maximal effect; tags tell the direction and shape of the fitted curve.
# Chain of UniProt B2RXH2 (B2RXH2 whole entry, looked up, the tested form may be a part): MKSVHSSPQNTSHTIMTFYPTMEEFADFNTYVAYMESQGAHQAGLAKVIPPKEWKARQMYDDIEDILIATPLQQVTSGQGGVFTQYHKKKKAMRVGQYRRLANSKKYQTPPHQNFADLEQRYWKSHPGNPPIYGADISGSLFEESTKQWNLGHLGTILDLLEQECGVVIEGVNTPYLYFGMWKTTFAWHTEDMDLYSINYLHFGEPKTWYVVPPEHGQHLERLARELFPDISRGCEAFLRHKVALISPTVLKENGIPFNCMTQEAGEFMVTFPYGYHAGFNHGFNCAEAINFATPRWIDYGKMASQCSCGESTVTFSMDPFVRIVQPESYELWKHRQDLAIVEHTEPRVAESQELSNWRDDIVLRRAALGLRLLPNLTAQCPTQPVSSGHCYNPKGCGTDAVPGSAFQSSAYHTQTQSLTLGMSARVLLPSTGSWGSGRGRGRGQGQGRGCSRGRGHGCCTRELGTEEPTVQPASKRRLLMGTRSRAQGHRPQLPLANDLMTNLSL
row,SMILES,Potency
1,CNC(=O)COC(=O)c1c2c(nc3ccccc13)CCC2,"inconclusive: 31.6 µM [inhibitor, single point]"
2,Cc1ccc(CN(C(=O)Cc2cccs2)C(C(=O)NC2CCCC2)c2ccncc2)cc1 (stereo not drawn),"inconclusive: 39.8 µM [inhibitor, single point]"
3,Cc1c(Cc2ccccc2)c(=O)oc2cc(OCC(=O)c3ccccc3)ccc12,"inconclusive: 31.6 µM [inhibitor, partial curve]"
4,CCn1cc(Cl)c(C(=O)Nc2cc(C(=O)OC)cc(C(=O)OC)c2)n1,"inconclusive: 39.8 µM [inhibitor, single point]"
5,C=CCn1c(SCC(=O)N2CCCCC2)nc(O)cc1=O,inactive
6,CC1N=C2c3ccccc3N=C(SCc3cc(=O)n4cc(Cl)ccc4n3)N2C1=O (stereo not drawn),"inconclusive: 31.6 µM [inhibitor, partial curve]"
7,O=C(NC(Cc1c[nH]c2ccccc12)c1nnc2n1CCCCC2)c1ccccc1 (stereo not drawn),inactive
8,CC(C)Cc1nc2oc3c(NCC4CCCO4)ncnc3c2c2c1CCC2 (stereo not drawn),"inconclusive: 3.55 µM [inhibitor, full curve]"
9,Cc1sc(NC(=O)c2oc3ccccc3c2C)c(C#N)c1C,"inconclusive: 4.47 µM [inhibitor, single point]"
10,CC1(C)CC(=O)C2=C(C1)NC(=O)NC2c1ccccc1 (stereo not drawn),inactive
11,COc1cccc(NC(=O)COc2nc3ccccc3nc2C)c1,"inconclusive: 31.6 µM [inhibitor, single point]"
12,CCC(=O)N/C(N)=N/c1nc(C)c2cc(C)c(C)cc2n1,"inconclusive: 39.8 µM [inhibitor, single point]"
13,Cc1ccc(-c2cc[n+](Cc3ccccc3)cc2)cc1,"inconclusive: 31.6 µM [inhibitor, partial curve]"
14,CC1=CC2=NC(=O)/C(=C\c3ccc(OC(=O)c4ccco4)cc3)C(=N)N2O1,"inconclusive: 35.5 µM [inhibitor, single point]"
15,Cc1ccc2[nH]c3c(Cl)ncnc3c2c1,"inconclusive: 0.631 µM [inhibitor, full curve]"
16,CCCCCCC(=O)Nc1nc(C)c(-c2csc(Nc3ccc(Cl)cc3)n2)s1,inactive
17,c1coc(CN=C2NC(=NCc3ccco3)c3ccccc32)c1,"inconclusive: 39.8 µM [inhibitor, single point]"
18,CC(C)(C)c1ccc(OCC(=O)N/N=C/c2ccc(N3CCOCC3)cc2)cc1,"inconclusive: 22.4 µM [inhibitor, partial curve]"
19,N#Cc1c(-c2ccccc2)cc(C2CC2)nc1N,"inconclusive: 31.6 µM [inhibitor, partial curve]"
20,CC(NC(=O)COC(=O)c1cc(=O)[nH]c2ccccc12)c1ccccc1 (stereo not drawn),"inconclusive: 25.1 µM [inhibitor, partial curve]"
21,Oc1ccc(/C=N/N2CCN(C3c4ccccc4-c4ccccc43)CC2)cc1,inactive
22,Cc1ccc(-c2cc(-c3nnc(SCC(=O)NC(C)C(C)C)n3N)c3ccccc3n2)cc1 (stereo not drawn),"inconclusive: 3.55 µM [inhibitor, full curve]"

row,SMILES,Potency
1,O=C(COc1ccc(S(=O)(=O)N2CCOCC2)cc1)Nc1ccc2c(c1)OCCO2,inactive
2,CC(=O)OC[C@H]1O[C@@H](O/N=C(\C)CCN2CCCCc3nc(C)c(C)cc32)[C@H](OC(C)=O)[C@@H](OC(C)=O)[C@@H]1OC(C)=O,"inconclusive: 39.8 µM [inhibitor, single point]"
3,Cc1ccc(NC(=S)c2nc3ccccc3[nH]2)cc1,"inconclusive: 39.8 µM [inhibitor, single point]"
4,CC(C)(C)c1nnc2sc(SCC(=O)c3ccccc3)nn2c1=O,inactive
5,C=C(CC)C(=O)c1ccc(OCC(=O)O)c(Cl)c1Cl,inactive
6,COC(=O)c1cc(OC)c(OC)cc1NC(=O)CCCCCN1C(=O)CCC1=O,"inconclusive: 28.2 µM [inhibitor, partial curve]"
7,Cc1nc2cc(-n3ccc(=O)cc3)ccc2n1-c1ccccc1,"inconclusive: 35.5 µM [inhibitor, single point]"
8,c1ccc2c(NCCCN3CCOCC3)c3ccccc3nc2c1,"inconclusive: 25.1 µM [inhibitor, partial curve]"
9,Cc1ccc(-c2c(C#N)c(N)nc3c2CCCC3)s1,"inconclusive: 7.94 µM [inhibitor, full curve, poor fit]"
10,O=C(NCc1cccnc1)c1ccc(Cl)cc1[N+](=O)[O-],inactive
11,C[N+](C)(C)CCOP(=O)(O)OP(=O)([O-])OC[C@H]1O[C@@H](n2ccc(N)nc2=O)[C@H](O)[C@@H]1O,inactive
12,COc1ccc2[nH]c(O)c(N=O)c2c1,inactive
13,Cn1c(SCC(=O)Nc2cccc(F)c2)nc2c([nH]c3ccccc32)c1=O,"inconclusive: 22.4 µM [inhibitor, single point]"
14,CCN(CC)CCCCn1c(-c2ccccc2)nc2c(N3CCOCC3)nc(C)nc21,"inconclusive: 28.2 µM [inhibitor, partial curve]"
15,C=CCOc1ccc(/C=N/NC(=O)C(=O)Nc2ccccn2)cc1OC,"inconclusive: 39.8 µM [inhibitor, single point]"
16,Cc1cc2nnc(SCC(=O)Nc3cc(S(=O)(=O)N4CCOCC4)ccc3Cl)n2c2ccccc12,"inconclusive: 31.6 µM [inhibitor, single point]"
17,O=C(Nc1cccc2ccccc12)NC1CCCc2ccccc21 (stereo not drawn),"inconclusive: 39.8 µM [inhibitor, single point]"
18,N#Cc1c(N)nc2c(c1-c1cccc(O)c1)CCCCCC2,"inconclusive: 28.2 µM [inhibitor, single point]"
19,COC(=O)C1=C(C)NC(C)=C(C(=O)OC)C1C(=O)OCC(=O)c1ccc(F)cc1,"inconclusive: 35.5 µM [inhibitor, single point]"
20,CCC(C)NC(=O)c1ccccc1NC(=O)c1ccc(CSc2ccccc2)cc1 (stereo not drawn),"inconclusive: 39.8 µM [inhibitor, single point]"
21,CC(C)C1Nc2c(C(=O)O)cccc2C(Nc2ccccc2C(=O)O)C1(C)C (stereo not drawn),"inconclusive: 22.4 µM [inhibitor, partial curve]"

# Source: PubChem BioAssay AID2147 (National Center for Advancing Translational Sciences (NCATS), 2009)
